Measurements as given in the supplement of paper PMC10126150.
Sequences with one replicate were seen in a single cluster, so their values are uncertain.

System: ATP
Assay: switch fluorescence ratio, 500 uM ATP over buffer (Cy3 cluster intensity, sum of 5 cycles each) (fold (ratio)); higher = stronger signal-on switching upon ATP binding; sequences stand for … in TCGTCGGCAGCGTCAGATGTGTATAAGAGACAGTTTTTTTTTTTTTTTTTTTTTTTTT…TC
Details: aptamer strand: ATP DNA aptamer (quencher-CACCTGGGGGAGTATTGCGGAGGAAGG + anchor), 100 nM annealed; ATP concentration: 500 uM; one replicate
Outline: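 The quencher-labelled ATP aptamer, at 100 nM, was annealed to Cy3-labelled switching-strand clusters on a modified Illumina MiSeq flow-cell. The clusters were imaged in selection buffer, then after 15 min with 500 uM ATP at 22 °C, and this buffer/ATP cycle ran five times with NaOH stripping and re-annealing between runs. Per-cluster fluorescence ratios, summed target-cycle over summed buffer-cycle Cy3 intensity, were averaged per switch-domain sequence. Clusters outside 100-1000 RFU were excluded.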
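Further: ATP exposure 15 min at 22 °C before imaging.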

Sequence	switch fluorescence ratio
TTATAAGGGT	0.986
TTATAATACC	1.04
TTATACAGGG	0.961
TTATACCTCC	1.33
TTATAGCTTG	0.994
TTATAGGCTG	1.09
TTATAGTGTA	0.986
TTATATAGGA	0.996
TTATATGGAC	1.03
TTATATTGGC	1.01
TTATCAATT	0.996
TTATCACACG	1.06
TTATCAGAAT	1.04
TTATCAGTA	0.973
TTATCATCAT	1.03
TTATCATGAC	1.03
TTATCCGACG	1.37
TTATCCGCA	3.59
TTATCCTAAA	1.01
TTATCGACCT	1.37
TTATCGCCTT	1.02
TTATCGTCCC	1.02
TTATCGTGAC	0.965
TTATCTGACC	1.03
TTATCTGGCT	1.03
TTATCTTTAA	1

Sequence	switch fluorescence ratio
TTATGACGG	0.958
TTATGAGCCG	0.957
TTATGAGTAT	1.01
TTATGCGTCG	1
TTATGGACAG	0.959
TTATGGATGG	0.951
TTATGTAACA	1.07
TTATGTATTC	1.02
TTATGTCGCA	0.997
TTATGTCGCG	1.01
TTATGTGCCC	0.999
TTATGTGGCC	1.01
TTATGTTCCT	0.989
TTATGTTTAT	1.01
TTATTAACGG	1.02
TTATTACGAG	1.01
TTATTAGGAG	1.03
TTATTATCTA	1.02
TTATTATGT	1.01
TTATTCACGT	1.01
TTATTCGTTC	0.998
TTATTCTCCC	1
TTATTCTGCC	1.04
TTATTGCTTG	0.993
TTATTGGTCA	1.02
TTATTGTGCA	0.995

Sequence	switch fluorescence ratio
TTATTTCACC	0.978
TTATTTCGG	0.999
TTCAAAGTAG	1.04
TTCAACCATT	1.04
TTCAACGCGA	1.59
TTCAACTAAG	1.06
TTCAACTTAA	1.04
TTCAAGACT	1.05
TTCAAGCAAA	0.977
TTCAAGCATC	1.09
TTCAAGCCGA	0.98
TTCAATCGGG	1.03
TTCACAGAGG	0.996
TTCACCCAGT	1.22
TTCACCCTTG	1.14
TTCACCGAC	1.53
TTCACGGCTT	1.04
TTCACGGGTG	1.46
TTCAGAGCTA	1.03
TTCAGCAGGG	1.05
TTCAGCCGGG	1.04
TTCAGCGATT	1.06
TTCAGCTATT	0.972
TTCAGCTGT	1
TTCAGCTTCA	1.08
TTCAGGGTC	1.04

Sequence	switch fluorescence ratio
TTCATAAACA	1.01
TTCATAAGTG	1
TTCATAATGG	1.04
TTCATATACG	1.04
TTCATGACAG	0.962
TTCATGGACG	0.975
TTCATGGATG	0.987
TTCATGGC	1
TTCATGTCCG	0.952
TTCATTCACA	1.03
TTCATTCACG	1.05
TTCATTCCGC	2.73
TTCATTGAGA	0.995
TTCATTGCGT	0.939
TTCATTGGAT	0.988
TTCATTTTTC	0.946
TTCCAAAGCT	1.45
TTCCAAGAGC	1.04
TTCCAAGGGG	1.02
TTCCAGTGGA	1.03
TTCCAGTGGT	1.05
TTCCAGTTTA	0.947
TTCCATCGAT	0.998
TTCCCAGTCA	1.02
TTCCCATCAC	1.13
TTCCCCTGAC	1.67

Sequence	switch fluorescence ratio
TTCCCGGGG	1.28
TTCCCTGGGT	1.05
TTCCGAAGTC	2.66
TTCCGACGAG	1.4
TTCCGACGGA	2.79
TTCCGAGATT	0.95
TTCCGAGTAT	1.06
TTCCGCCCCC	0.997
TTCCGGCGCG	1.35
TTCCGGGG	1.39
TTCCGGGGCA	1.61
TTCCGTTTGT	0.984
TTCCTATGG	1.18
TTCCTCAGCT	2.64
TTCCTCTAGA	1.63
TTCCTGACCG	0.977
TTCCTGAGGA	1.03
TTCCTGGCTG	1.05
TTCCTGGGAC	1.07
TTCCTGTTGA	1.03
TTCCTTGAAG	1.02
TTCCTTGTGT	1
TTCCTTTCTG	1.01
TTCCTTTGGA	0.931
TTCCTTTGGT	0.989
TTCGACAGTC	0.947

Sequence	switch fluorescence ratio
TTCGACGGTA	1.05
TTCGACTACT	1.16
TTCGAGGCGG	1.05
TTCGATATGC	1.06
TTCGATCCTA	1.01
TTCGATGATG	0.962
TTCGCAGACC	1.1
TTCGCAGACG	1.08
TTCGCATTG	1.02
TTCGCCGATA	0.982
TTCGCCGCTT	1.06
TTCGCGGAGA	1.02
TTCGCGGTT	0.968
TTCGCTAAGT	1.1
TTCGCTCTAG	1.03
TTCGCTGAT	2.81
TTCGCTGCAC	3.31
TTCGGAGCAA	1.61
TTCGGATCTG	0.985
TTCGGGCAGT	1.02
TTCGGGTCTC	0.974
TTCGGTCATT	0.981
TTCGGTCTGT	1
TTCGGTGAGA	1.02
TTCGGTTGAC	1.44
TTCGTACCTC	1.06

Sequence	switch fluorescence ratio
TTCGTATACG	1.03
TTCGTGAGAA	0.958
TTCGTTACTA	0.979
TTCGTTAGTT	0.991
TTCGTTGCGA	1.03
TTCTACGAGG	0.983
TTCTACGTAC	1.7
TTCTACGTCA	1.26
TTCTAGATAG	0.976
TTCTATCGGA	1.02
TTCTATCGGG	0.992
TTCTATCGGT	0.966
TTCTATGAAC	1.02
TTCTCATTAA	0.994
TTCTCCAAAC	1.05
TTCTCCGA	1.13
TTCTCCTGAA	1.07
TTCTCTGCCG	1.11
TTCTCTTAAT	1.04
TTCTGACGGC	1.05
TTCTGATGAA	0.979
TTCTGATTAG	0.991
TTCTGGATG	1.06
TTCTGGCAGT	0.982
TTCTGGGAAG	0.989
TTCTGTCATG	1.2

Sequence	switch fluorescence ratio
TTCTGTTCCT	0.992
TTCTGTTCTT	1.03
TTCTTACCTT	1.07
TTCTTATAGT	0.941
TTCTTCTCTA	1.16
TTCTTGACGA	1.02
TTCTTGGTTT	0.978
TTCTTTCACG	0.992
TTCTTTCCCG	1.07
TTCTTTCCCT	1.1
TTCTTTTGAG	1.01
TTGAAAATTC	1.02
TTGAAAGCAG	1.71
TTGAAAGGTT	0.989
TTGAACCCAT	1
TTGAAGCGG	1.02
TTGAAGGTCC	1.06
TTGAAGTAA	0.992
TTGAATCAGA	1.07
